Screen size: about 340,000 compounds; about 530 (0.16%) were called active. Inconclusive means that the source gave no clear call. Such entries were picked first, then a sample of the others. Rule as the data show it: active = activity change below about -80%; inconclusive = between about -30% and that limit; inactive = weaker than that.
Assay: Small Molecules that selectively kill Giardia lamblia: qHTS;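 also: parasites exposed to compound for two days anaerobically before the ATP read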
Conditions: Giardia lamblia trophozoite viability; at 7.66 µM; hits give low values
Source text: Giardia lamblia is a human pathogen afflicting impoverished nations, and the most common cause of outbreaks of diarrhea in the United States. Giardia has been classified by the CDC as a category B bioterrorism organism. The favored anti giardiasis drugs in the US are metronidazole or tinidazole, compounds that have undesirable side effects. Moreover, increasing resistance to drug regimes and recurrence are a concern. It is thus clear that alternative drug treatments are needed.
In a collaboration between the University of Maryland, College Park and the NIH Chemical Genomics Center, a bioluminescence Giardia viability assay based on the trophozoites' ATP content was developed. This assay is suitable for high throughput screening, and miniaturized the assay for compound screening in 1536-well plates. The goal of the project is to screen the Molecular Libraries Small Molecule Repository (MLSMR) for compounds that selectively kill Giardia trophozoites.
NIH Chemical Genomics Center [NCGC]
NIH Molecular Libraries Probe Centers Network [MLPCN]
Assay Submitter (PI): Osnat Herzberg, University of Maryland, College Park, MD.
1. Dispense 2 ul/well media
2. Dispense 23 nl/well compounds
3. Dispense 4 ul/well Giardia trophozoites at a concentration of 100 cells/well
4. Incubate 48 hrs at 37 deg C anaerobically
5. Dispense 4 ul/well ATPLite 1-Step Luminescence assay kit
6. Incubate 15-30 min at room temperature
7. Read luminescence signal on ViewLux plate reader
% is scaled to controls: 0 for no effect and ±100 for the full control effect.

SMILES	activity change
COC(=O)c1ccccc1-n1c(C)nc2ccccc2c1=O	inactive: -5.66%
COc1ccc(C(=O)N2CCC3(CC2)OCCO3)cc1	inactive: 0.454%
CN1CCN(c2ccc([N+](=O)[O-])c3cccnc23)CC1	active: -83.6%
CN1OC[C@@H]2COc3ccc4ccccc4c3[C@@H]21	inconclusive: -30.8% [inhibitor]
COC(=O)C1=C(c2ccc(OCc3ccccc3)cc2)C[C@@H]2CC[C@H]1N2C(=O)NC1CCN(Cc2ccccc2)CC1	inactive: 6.6%
COC(=O)C1=C(c2ccc(F)cc2OCc2ccccc2)C[C@@H]2CC[C@H]1N2C(=O)NCc1cccc(F)c1	inconclusive: -30.4% [inhibitor]
COC(/C(C)=C/C=C/C(C)=C/c1coc(C)n1)C(C)C1CC(O)C2(C)OC2C=CC(C)C2CC(CC(=O)O2)CC2OC2C(=O)O1 (stereo unspecified)	inconclusive: -63.8% [inhibitor]
O=C1NC(=O)N(c2ccccc2)C(=O)/C1=C/C=C/c1ccco1	inactive: 6.14%
Cc1ccccc1CCNCc1cc2cccc(C)c2[nH]c1=O	inconclusive: -30.9% [inhibitor]
O=C(O)COc1ccccc1	inactive: 10.1%
Cc1cc(C)c(N=Cc2c(O)[nH]c(=O)[nH]c2=O)c(C)c1	inconclusive: -32.5% [inhibitor]
O=C(N/N=C/c1c(O)n(C2CCCCC2)c(=S)[nH]c1=O)c1ccccc1O	inconclusive: -32.7% [inhibitor]
O=C(CN1C(=O)COc2ccccc21)N1CCC2(CC1)OCCO2	inconclusive: -38.6% [inhibitor]
CCn1ccnc1CN1CCCC(C(=O)c2cc(F)ccc2OC)C1 (stereo unspecified)	inactive: -0.18%
COC(=O)C1=C(c2cccc(OC)c2OC)C[C@@H]2CC[C@H]1N2C(=O)N1CCCC1	inconclusive: -30.2% [inhibitor]
O=C1NC(=O)N(Cc2ccccc2)C(=O)/C1=C/C=C/c1ccco1	inactive: -11.3%
CCOC(=O)C1C(OC(=O)c2ccccc2)CC2CCC1N2C (stereo unspecified)	inconclusive: -30.3% [inhibitor]
O=C(c1cc(F)ccc1F)C1CCCN(Cc2cc(Cl)ccc2O)C1 (stereo unspecified)	inconclusive: -34.9% [inhibitor]
COC(=O)C1=C(c2ccc(F)cc2OCc2ccccc2)C[C@@H]2CC[C@H]1N2C(=O)NCc1ccccc1	inconclusive: -30% [inhibitor]
Cc1cccc(-n2c(/C=C/c3ccc([N+](=O)[O-])o3)nc3ccccc3c2=O)c1	active: -88.1%
Cc1cccn2c(=O)c3c(nc12)N1CCC(Cc2ccccc2)CC1C1(C3)C(=O)N(C)C(=O)N(C)C1=O (stereo unspecified)	inactive: -12.1%

— PubChem BioAssay AID540267 (National Center for Advancing Translational Sciences (NCATS), 2011)
